Here are results for 26 molecules from paper PMC4336329 (PLoS ONE, 2015).

SMILES strings stand for the structures. The whole screen tested about 310,000 compounds, of which about 2,200 (0.71%) showed an effect of 50% or more. The effect is printed as a negative number. The list shows a part of the results.

The target of this assay is human ether-à-go-go-related gene (hERG) potassium channel (human, UniProt Q12809). Nature of the assay: primary screen, population patch clamp on CHO cells stably expressing hERG.
human ether-à-go-go-related gene (hERG) potassium channel, sequence (Q12809 whole entry, looked up): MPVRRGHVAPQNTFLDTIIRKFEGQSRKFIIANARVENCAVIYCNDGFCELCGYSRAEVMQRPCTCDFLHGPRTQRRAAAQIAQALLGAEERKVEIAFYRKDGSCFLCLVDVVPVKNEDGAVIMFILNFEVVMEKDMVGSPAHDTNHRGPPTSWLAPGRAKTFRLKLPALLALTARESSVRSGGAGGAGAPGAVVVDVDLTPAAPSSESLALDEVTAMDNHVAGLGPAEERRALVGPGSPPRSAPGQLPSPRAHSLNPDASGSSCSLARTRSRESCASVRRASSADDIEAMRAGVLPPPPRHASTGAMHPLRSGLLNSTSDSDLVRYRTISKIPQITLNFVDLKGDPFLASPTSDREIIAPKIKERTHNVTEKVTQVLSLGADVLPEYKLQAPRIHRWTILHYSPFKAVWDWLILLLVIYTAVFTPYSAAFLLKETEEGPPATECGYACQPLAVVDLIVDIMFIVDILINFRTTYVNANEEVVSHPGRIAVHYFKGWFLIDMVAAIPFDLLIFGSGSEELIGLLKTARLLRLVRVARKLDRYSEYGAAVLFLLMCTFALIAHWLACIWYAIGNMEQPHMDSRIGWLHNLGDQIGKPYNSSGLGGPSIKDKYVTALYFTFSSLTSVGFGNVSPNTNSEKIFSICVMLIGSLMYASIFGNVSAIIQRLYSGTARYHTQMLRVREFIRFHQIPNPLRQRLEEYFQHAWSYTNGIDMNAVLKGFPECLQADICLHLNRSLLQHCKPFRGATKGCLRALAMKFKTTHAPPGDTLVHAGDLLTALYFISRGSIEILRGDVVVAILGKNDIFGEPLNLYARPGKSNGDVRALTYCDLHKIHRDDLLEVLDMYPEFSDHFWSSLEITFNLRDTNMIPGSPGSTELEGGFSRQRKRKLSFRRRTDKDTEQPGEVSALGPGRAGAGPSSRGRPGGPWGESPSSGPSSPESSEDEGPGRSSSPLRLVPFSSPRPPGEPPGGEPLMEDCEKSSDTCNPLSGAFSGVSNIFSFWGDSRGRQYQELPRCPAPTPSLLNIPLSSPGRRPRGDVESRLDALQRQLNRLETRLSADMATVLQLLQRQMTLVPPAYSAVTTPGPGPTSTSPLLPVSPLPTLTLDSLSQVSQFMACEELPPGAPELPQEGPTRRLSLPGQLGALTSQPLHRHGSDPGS
As to `CCOc1ccc(NC(=O)COc2ccc(S(=O)(=O)N3CCCC3)cc2)cc1`, the “hERG current change (%, negative = inhibition) at 1uM” value turned out to be 10.7%.
Turning to `CSc1ncccc1C(=O)OCc1ccc(Br)cc1`, the “hERG current change (%, negative = inhibition) at 1uM” value was 12.5%.
Regarding `CCC(CC)=NNc1ccc(S(N)(=O)=O)cc1[N+](=O)[O-]`, the “hERG current change (%, negative = inhibition) at 1uM” value was 8.83%.
Take `Cc1ccc(-c2nnn(CC(=O)N(CC3CCCO3)C(C(=O)NC3CCCC3)c3ccc(O)cc3)n2)o1` (centres unmarked): the “hERG current change (%, negative = inhibition) at 1uM” value was 4.52%.
On to `CCn1cc(-c2cc(C(=O)O)c3ccccc3n2)cn1`, for which the “hERG current change (%, negative = inhibition) at 1uM” value is recorded as 17.9%.
The value for `CC(=O)Nc1nc(C)c(Oc2ccccc2)c(=O)[nH]1` was -0.98%; that for `COC(=O)c1c(NC(=O)c2nc3ccccc3s2)sc2c1CC(C)(C)NC2(C)C` was 13.5%.
The value for `CCO.CCn1c(COc2ccc3c(c2)OCO3)nnc1SCC(=O)O` was 2.98%.
Regarding `COc1ccccc1C1NC(=O)NC(C)=C1C(=O)OC1CCCCC1` (centres unmarked), the “hERG current change (%, negative = inhibition) at 1uM” value was 8.27%.
For `COC(=O)CSc1nc2ncc(Cl)cc2[nH]1`, the “hERG current change (%, negative = inhibition) at 1uM” value is -0.29%.
For `Cc1ccc(C(=O)Nc2ncccc2C)cc1S(=O)(=O)N1CCOCC1`, the “hERG current change (%, negative = inhibition) at 1uM” value worked out at 14.2%.
For `CCc1ccc(NC(=O)C2CC(=O)N(C(C)C)C2)cc1` (centres unmarked), the “hERG current change (%, negative = inhibition) at 1uM” value worked out at 6.97%.
Turning to `O=C(Nc1nnc2n1CCS2)c1ccco1`, the “hERG current change (%, negative = inhibition) at 1uM” value is on record as 15.8%.
Turning to `CN(C)S(=O)(=O)c1ccc(C(=O)NCc2nc3ccccc3s2)cc1`, the “hERG current change (%, negative = inhibition) at 1uM” value is on record as 6.26%.
The result for `COC(=O)C1=C(O)/C(=C\c2cc(C)n(-c3ccc(F)cc3)c2C)N=C1C` reads -1.63%.
Take `COC(=O)c1c(NC(=O)Cc2ccccc2)sc(C)c1C`: the “hERG current change (%, negative = inhibition) at 1uM” value was 8.47%.
Take `CC(C)C(C)NC(=O)CN1C(=O)NC2(CCc3ccccc32)C1=O` (centres unmarked): the “hERG current change (%, negative = inhibition) at 1uM” value is given as 14.4%.
In the case of `O=C(COC(=O)c1cncc(Br)c1)NCc1ccccc1Cl`, the “hERG current change (%, negative = inhibition) at 1uM” value came to 16%.
Regarding `O=C(O)c1cccc2c1C(=O)c1cccc3snc-2c13`, the “hERG current change (%, negative = inhibition) at 1uM” value worked out at 2.12%.
As for `COc1cccc(NC(=O)CN(C)C(=O)c2c(C)noc2C)c1`, the “hERG current change (%, negative = inhibition) at 1uM” value is given as -11.6%.
The value for `N/C(=N\OC(=O)c1cccc(Cl)c1)c1ccccn1` was 16.8%; that for `COc1ccc(-n2ncc3c(SCC(=O)NNC(C)=O)ncnc32)cc1` was 9.7%.
`COc1cccc(NC(=O)COc2ccc3c(c2)CCC3)c1`: the “hERG current change (%, negative = inhibition) at 1uM” value was 5.99%.
As for `C=C(C)Cn1c(CCNC(=O)c2ccco2)nc2ccccc21`, the “hERG current change (%, negative = inhibition) at 1uM” value is given as -3.26%.
Take `COc1ccccc1NNC(=O)C(O)(c1ccccc1)c1ccccc1`: the “hERG current change (%, negative = inhibition) at 1uM” value was 1.88%.
For the molecule `CCCOc1ccc(/C=C/C(=O)Nc2ccc([N+](=O)[O-])cc2)cc1`, the “hERG current change (%, negative = inhibition) at 1uM” value was 11.8%.
